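Method: 48-hour compound exposure of cells in 96-well plates, five concentrations, linear interpolation of endpoints. The concentration for full growth arrest is given as TGI.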
Experiments:
Assay in all cases: growth of human tumour cells (NCI), 48 h
[1] = test system: OVCAR-8 ovarian
[2] = test system: LOX IMVI melanoma
[3] = test system: NCI/ADR-RES ovarian
[4] = test system: NCI-H226 lung
[5] = test system: MALME-3M melanoma
[6] = test system: SK-MEL-28 melanoma
[7] = test system: HOP-92 NSCLC
[8] = test system: SF-295 CNS
[9] = test system: MOLT-4 leukemia
[10] = test system: MCF7 breast
[11] = test system: A498 renal
[12] = test system: HL-60(TB) leukemia
[13] = test system: RXF 393 renal
[14] = test system: RPMI-8226 leukemia
[15] = test system: DU-145 prostate
[16] = test system: UO-31 renal
[17] = test system: SK-MEL-5 melanoma
[18] = test system: SNB-75 CNS
[19] = test system: K-562 leukemia
[20] = test system: HOP-62 NSCLC
[21] = test system: SF-539 CNS
[22] = test system: SN12C renal
[23] = test system: COLO 205 colon
[24] = test system: SW-620 colon
[25] = test system: HCT-116 colon
[26] = test system: TK-10 renal
[27] = test system: HT29 colon
[28] = test system: EKVX NSCLC
[29] = test system: KM12 colon
[30] = test system: BT-549 breast
[31] = test system: SF-268 CNS
[32] = test system: SR leukemia
[33] = test system: SNB-19 CNS
[34] = test system: ACHN renal
[35] = test system: A549 NSCLC
[36] = test system: U251 CNS
[37] = test system: OVCAR-3 ovarian
[38] = test system: HCT-15 colon
[39] = test system: OVCAR-5 ovarian
[40] = test system: PC-3 prostate
[41] = test system: OVCAR-4 ovarian
[42] = test system: NCI-H460 lung
[43] = test system: NCI-H522 lung
[44] = test system: 786-0 renal
[45] = test system: HS 578T breast
[46] = test system: IGROV1 ovarian
[47] = test system: CAKI-1 renal
[48] = test system: UACC-257 melanoma
[49] = test system: CCRF-CEM leukemia
[50] = test system: MDA-N
[51] = test system: MDA-MB-231 breast
[52] = test system: HCC-2998 colon
[53] = test system: MDA-MB-435

Measured: TGI

Cc1ccc2[nH]c3c(c2c1)CC(=O)Nc1ccccc1-3
> 100 µM: all assays above

— PubChem BioAssay (NCI)
